In publication PMC4336329 (PLoS ONE, 2015):
Screen size: about 310,000 compounds; about 14,000 (4.5%) showed an effect of 50% or more. The effect is printed as a negative number. This is one part of the list.

target: human ether-à-go-go-related gene (hERG) potassium channel (human, UniProt Q12809); experiment: primary screen, population patch clamp on CHO cells stably expressing hERG
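Further: peak tail current of the secondary pulse compared with the same well before compound.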

Sequence of human ether-à-go-go-related gene (hERG) potassium channel (Q12809 whole entry, looked up): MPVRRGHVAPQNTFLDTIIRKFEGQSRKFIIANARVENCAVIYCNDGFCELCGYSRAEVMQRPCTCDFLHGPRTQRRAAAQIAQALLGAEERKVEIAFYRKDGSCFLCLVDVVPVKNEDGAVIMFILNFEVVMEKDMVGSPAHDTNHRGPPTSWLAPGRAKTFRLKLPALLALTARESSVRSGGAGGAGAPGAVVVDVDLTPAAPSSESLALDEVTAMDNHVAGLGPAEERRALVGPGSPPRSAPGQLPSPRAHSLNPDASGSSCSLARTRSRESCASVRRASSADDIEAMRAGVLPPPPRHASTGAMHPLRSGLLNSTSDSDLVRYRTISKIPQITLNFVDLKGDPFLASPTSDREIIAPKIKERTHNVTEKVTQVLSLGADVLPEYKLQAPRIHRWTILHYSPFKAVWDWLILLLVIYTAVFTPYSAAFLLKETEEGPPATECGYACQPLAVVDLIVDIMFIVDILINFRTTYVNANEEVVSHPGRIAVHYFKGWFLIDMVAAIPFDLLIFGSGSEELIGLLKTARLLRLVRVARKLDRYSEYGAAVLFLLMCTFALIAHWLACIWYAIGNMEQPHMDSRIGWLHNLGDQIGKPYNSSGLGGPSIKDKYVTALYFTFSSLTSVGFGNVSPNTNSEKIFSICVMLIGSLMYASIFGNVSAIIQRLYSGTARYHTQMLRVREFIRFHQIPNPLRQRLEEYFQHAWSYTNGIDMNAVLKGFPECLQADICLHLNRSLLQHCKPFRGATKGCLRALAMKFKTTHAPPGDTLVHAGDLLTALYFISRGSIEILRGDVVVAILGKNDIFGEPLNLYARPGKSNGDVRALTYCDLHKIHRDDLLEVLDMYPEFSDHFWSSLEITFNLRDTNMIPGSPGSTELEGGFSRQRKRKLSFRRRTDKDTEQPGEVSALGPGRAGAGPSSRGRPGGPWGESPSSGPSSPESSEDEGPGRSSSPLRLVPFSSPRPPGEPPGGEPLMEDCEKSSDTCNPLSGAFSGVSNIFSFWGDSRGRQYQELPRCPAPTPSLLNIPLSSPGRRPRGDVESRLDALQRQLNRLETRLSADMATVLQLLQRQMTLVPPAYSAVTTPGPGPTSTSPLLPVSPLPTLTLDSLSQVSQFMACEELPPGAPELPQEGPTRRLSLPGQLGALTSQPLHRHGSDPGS

Row | Structure (SMILES) | hERG current change (%, negative = inhibition) at 10uM [%]
1 | O=C(CCN1C(=O)C2C3C=CC(C3)C2C1=O)Nc1ccccc1 (centres unmarked) | 21.1
2 | CCCCOC(=O)c1nc[nH]c1C(=O)OCCCC | 34.2
3 | Cc1cc(C)cc(C(=O)N/N=C/c2ccoc2)c1 | 5.26
4 | C/C(=N\NC(=O)c1cc(Cl)ccc1O)c1ccc(Br)s1 | -3.88
5 | Nn1c(Cc2cccc3ccccc23)n[nH]c1=S | 14.1
6 | Cc1noc(NS(=O)(=O)c2ccc(NC(=O)CSc3nc4c(cc3C#N)CCC4)cc2)c1C | 9.3
7 | CC(C)(C)NCCCCOc1ccc(F)cc1 | -1.76
8 | CCn1cc(C2N3CC4(C)CN2CC(C)(C3)C4=O)c2ccccc21 (centres unmarked) | 7.47
9 | COCCNC(=O)C(c1ccc(C)cc1)N(CCOC)C(=O)CCC(=O)Nc1nccs1 (centres unmarked) | 21.3
10 | Cc1ccc(N(C(=O)c2ccco2)C(C(=O)NC2CCCC2)c2cccnc2)cc1C (centres unmarked) | -0.0195
11 | Cc1ccc(F)c(NC(=O)c2cncn2-c2ccccc2)c1 | -17.7
12 | O=C(CN1C(=O)NC2(CCc3ccccc32)C1=O)NCCc1ccccc1 (centres unmarked) | -6.43
13 | CCOc1ccc(S(=O)(=O)N(CC)CC(=O)NCc2ccco2)cc1C | -13.3
14 | CC(C)(CSc1nncn1N)NS(=O)(=O)c1ccc(Cl)cc1 | 7.31
15 | Cc1cc(C(=O)NNC(=O)c2ccc(S(=O)(=O)N(C)C)cc2)c(C)o1 | 31
16 | Cc1noc(C)c1S(=O)(=O)N1CCC(C(=O)N2CCC(N3CCCCC3)CC2)CC1 | 14.3
17 | CCOC(=O)c1[nH]c(C)c(C(=O)OCC(=O)NC(C)c2ccc(F)cc2)c1C (centres unmarked) | 4.81
18 | Nc1nc(-c2ccccn2)nc(N)c1Cc1ccc(Cl)cc1Cl | 3.43
19 | O=C(Nc1ccc(Cl)c(Cl)c1)Nc1cc(S(=O)(=O)N2CCOCC2)ccc1N1CCCC1 | -16.6
20 | CCn1c(C)nc2cc(C(=O)N/N=C/c3cccc(O)c3O)ccc21 | 7.54
21 | CC1CN(C(=O)c2ccc3c(c2)OCO3)OC(c2ccccc2)O1 (centres unmarked) | -0.0529
22 | CCOCCCN(C)C1CCN(C(=O)c2oc3ccccc3c2NC(=O)Cc2ccc(F)cc2)CC1 | -77.8

Row | Structure (SMILES) | hERG current change (%, negative = inhibition) at 10uM [%]
23 | CC(C)CN(CC(C)C)C(=O)Nc1ccc(F)cc1F | 19.5
24 | O=C(COC(=O)c1ccco1)Nc1ccc2c(c1)OCCO2 | 14.6
25 | CSc1ccc(CCNC(=O)c2cccc3c2C(=O)N(C2CCCCC2)C3)cc1 | -14.4
26 | Nc1c(Cl)cc(-c2csc(N3CCCC3c3nc4cc(Cl)c(N5CCCCC5)cc4n3CCCO)n2)cc1Cl (centres unmarked) | 14.6
27 | NC(=O)c1ccc(NC(=O)CNC(c2ccccc2)c2ccccc2)cc1 | 7.12
28 | Clc1cccc(Cl)c1COn1nnc2ccccc21 | -3.48
29 | CCn1c(=O)c(C(=O)Nc2nc3ccccc3[nH]2)c(O)c2ccccc21 | -28.3
30 | COCCCNC(=O)CS(=O)(=O)Cc1nc(-c2ccccc2C)oc1C | 6.26
31 | COc1ccc(N(C(=O)c2cccnc2)S(=O)(=O)c2ccc(OC)c(OC)c2)cc1 | -31.3
32 | Cc1nc(C(F)(F)F)ccc1C(=O)NN1CCOCC1 | 26.4
33 | Cn1c2ccccc2c(=O)c2c(=O)n(Cc3ccco3)c(-c3ccc(C(C)(C)C)cc3)nc21 | 8.96
34 | COc1ccc(-c2cc(C3CCN(Cc4cccc(C(F)(F)F)c4)CC3)[nH]n2)cc1 | -55.2
35 | COc1cccc(NC(=O)Cc2nc(-c3ccccc3)sc2-c2ccc(C)cc2)c1 | 11.8
36 | COc1ccc(C(=N/O)/C(=N/O)c2ccc(OC)cc2)cc1 | -4.76
37 | Cc1ccc(C(=O)c2cc([N+](=O)[O-])ccc2N2CCCCC2)cc1C | 6.24
38 | CC(C)(C)NC(=O)C(=O)NCCC1=CCCCC1 | 1.45
39 | Cc1ccc(C(=O)Nc2ccc3ccccc3c2)cc1 | 13.3
40 | Cc1ccc2[nH]c(C(=O)O)c(NC(=O)c3ccccc3[N+](=O)[O-])c2c1 | -1.51
41 | O=C(NCc1ccncc1)c1ccc(S(=O)(=O)Nc2ccccc2)cc1 | -12.8
42 | COc1cccc2cc(C(=O)NCc3ccc(Cl)cc3)c(=N)oc12 | 15.6
43 | Cc1cccc(OCc2nnc(SCC(=O)N3c4ccccc4Sc4ccc(Cl)cc43)o2)c1 | 5.19
44 | Cc1ccc2cccc(Oc3nnnn3-c3ccccc3)c2n1 | -6.46
